Measurements reported in the supplement of paper PMC12578646, “Prodrug florfenicol amine is activated by intrinsic resistance to target Mycobacterium abscessus” (Nature Microbiology, 2025).

What was measured:
Test in all cases: growth relative to untreated wells; higher = more growth (less inhibition)
[1] = test system: Mycobacterium abscessus ATCC 19977 ΔwhiB7
Method: (§1)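 384-well two-fold dose series, two replicates; 5 days at 37 °C, then 24 h with resazurin; fluorescence scaled to growth and killed controls.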

[2] = test system: Mycobacterium abscessus ATCC 19977 Δeis2
Method: as §1

[3] = test system: Mycobacterium abscessus ATCC 19977 Eis2 Y284*
Method: as §1

[4] = test system: Mycobacterium abscessus ATCC 19977 Eis2 Y227D
Method: as §1

[5] = test system: Mycobacterium abscessus ATCC 19977 Eis2 T258R
Method: as §1

[6] = test system: Mycobacterium abscessus ATCC 19977 WhiB7 F24fs
Method: as §1

[7] = test system: Mycobacterium abscessus ATCC 19977 Eis2 E120fs
Method: as §1

[8] = test system: Mycobacterium abscessus ATCC 19977 Eis2 Y255*
Method: as §1

[9] = test system: Mycobacterium abscessus ATCC 19977 WhiB7 A51T
Method: as §1

[10] = test system: Mycobacterium abscessus ATCC 19977 WhiB7 L37P
Method: as §1

[11] = test system: Mycobacterium abscessus ATCC 19977 WhiB7 T70fs
Method: as §1

[12] = test system: Mycobacterium abscessus ATCC 19977
Method: as §1

CC[C@H]1OC(=O)[C@H](C)[C@@H](O[C@H]2C[C@@](C)(OC)[C@@H](O)[C@H](C)O2)[C@H](C)[C@@H](O[C@@H]2O[C@H](C)C[C@H](N(C)C)[C@H]2O)[C@](C)(OC)C[C@@H](C)C(=O)[C@H](C)[C@@H](O)[C@]1(C)O [clarithromycin]
Details | growth [%]
[1], 0.03125 µg/mL | 120
[1], 0.0625 µg/mL | 53.1
[1], 0.125 µg/mL | 8.72
[1], 0.25 µg/mL | -4.09
[1], 0.5 µg/mL | -4.36
[1], 1 µg/mL | -6.12
[1], 2 µg/mL | -6.09
[1], 4 µg/mL | -5.37
[1], 8 µg/mL | -5.43
[1], 16 µg/mL | -5.22
[1], 32 µg/mL | -4.99
[1], 64 µg/mL | -3.84
[2], 0.03125 µg/mL | 121
[2], 0.0625 µg/mL | 56.1
[2], 0.125 µg/mL | 18.3
[2], 0.25 µg/mL | -1.54
[2], 0.5 µg/mL | -2.92
[2], 1 µg/mL | -4.1
[2], 2 µg/mL | -3.67
[2], 4 µg/mL | -4.11
[2], 8 µg/mL | -3.79
[2], 16 µg/mL | -4.02
[2], 32 µg/mL | -3.42
[2], 64 µg/mL | -1.98
[3], 0.03125 µg/mL | 123
[3], 0.0625 µg/mL | 88.087
[3], 0.125 µg/mL | 22.9
[3], 0.25 µg/mL | 3.31
[3], 0.5 µg/mL | -1.361
[3], 1 µg/mL | -2.83
[3], 2 µg/mL | -2.67
[3], 4 µg/mL | -0.5
[3], 8 µg/mL | -2.84
[3], 16 µg/mL | -2.81
[3], 32 µg/mL | -2.61
[3], 64 µg/mL | -1.64
[4], 0.03125 µg/mL | 124.8
[4], 0.0625 µg/mL | 83.7
[4], 0.125 µg/mL | 24.7
[4], 0.25 µg/mL | 3.27
[4], 0.5 µg/mL | 0.757
[4], 1 µg/mL | -1.64
[4], 2 µg/mL | -1.07
[4], 4 µg/mL | -2
[4], 8 µg/mL | -1.73
[4], 16 µg/mL | -1.37
[4], 32 µg/mL | -1.46
[4], 64 µg/mL | -0.122
[5], 0.03125 µg/mL | 120
[5], 0.0625 µg/mL | 62.2
[5], 0.125 µg/mL | 12.9
[5], 0.25 µg/mL | 0.586
[5], 0.5 µg/mL | -1.29
[5], 1 µg/mL | -3.07
[5], 2 µg/mL | -3.63
[5], 4 µg/mL | -3.35
[5], 8 µg/mL | -3
[5], 16 µg/mL | -3.35
[5], 32 µg/mL | -3.35
[5], 64 µg/mL | -1.95
[6], 0.03125 µg/mL | 122
[6], 0.0625 µg/mL | 33.8
[6], 0.125 µg/mL | 1.08
[6], 0.25 µg/mL | -1.8
[6], 0.5 µg/mL | -1.95
[6], 1 µg/mL | -3.26
[6], 2 µg/mL | -3.03
[6], 4 µg/mL | -3.09
[6], 8 µg/mL | -2.36
[6], 16 µg/mL | -2.55
[6], 32 µg/mL | -2.49
[6], 64 µg/mL | -1.19
[7], 0.03125 µg/mL | 131
[7], 0.0625 µg/mL | 109
[7], 0.125 µg/mL | 35.3
[7], 0.25 µg/mL | 5.66
[7], 0.5 µg/mL | 0.146
[7], 1 µg/mL | -2.24
[7], 2 µg/mL | -3.04
[7], 4 µg/mL | -3.21
[7], 8 µg/mL | -3.137
[7], 16 µg/mL | -3.13
[7], 32 µg/mL | -2.4
[7], 64 µg/mL | -1.31
[8], 0.03125 µg/mL | 129
[8], 0.0625 µg/mL | 82.5
[8], 0.125 µg/mL | 18
[8], 0.25 µg/mL | 1.78
[8], 0.5 µg/mL | -0.0444
[8], 1 µg/mL | -3.83
[8], 2 µg/mL | -4.34
[8], 4 µg/mL | -4.43
[8], 8 µg/mL | -4.46
[8], 16 µg/mL | -4.42
[8], 32 µg/mL | -4.07
[8], 64 µg/mL | -2.93
[9], 0.03125 µg/mL | 132
[9], 0.0625 µg/mL | 49.1
[9], 0.125 µg/mL | 7.95
[9], 0.25 µg/mL | -0.625
[9], 0.5 µg/mL | -1.53
[9], 1 µg/mL | -3.11
[9], 2 µg/mL | -2.97
[9], 4 µg/mL | -3.22
[9], 8 µg/mL | -3.26
[9], 16 µg/mL | -2.87
[9], 32 µg/mL | -3.01
[9], 64 µg/mL | -1.4
[10], 0.03125 µg/mL | 121
[10], 0.0625 µg/mL | 52
[10], 0.125 µg/mL | 1.8
[10], 0.25 µg/mL | -1.57
[10], 0.5 µg/mL | -1.79
[10], 1 µg/mL | -2.63
[10], 2 µg/mL | -2.81
[10], 4 µg/mL | -3.54
[10], 8 µg/mL | -3.028
[10], 16 µg/mL | -2.62
[10], 32 µg/mL | -2.65
[10], 64 µg/mL | -1.194
[11], 0.03125 µg/mL | 120
[11], 0.0625 µg/mL | 17.5
[11], 0.125 µg/mL | -0.673
[11], 0.25 µg/mL | -4.48
[11], 0.5 µg/mL | -4.11
[11], 1 µg/mL | -4.61
[11], 2 µg/mL | -4.73
[11], 4 µg/mL | -5.56
[11], 8 µg/mL | -5.12
[11], 16 µg/mL | -4.82
[11], 32 µg/mL | -4.49
[11], 64 µg/mL | -3.04
[12], 0.03125 µg/mL | 122.13
[12], 0.0625 µg/mL | 51.3
[12], 0.125 µg/mL | 6.5
[12], 0.25 µg/mL | 1.69
[12], 0.5 µg/mL | -1.53
[12], 1 µg/mL | -2.39
[12], 2 µg/mL | -2.94
[12], 4 µg/mL | -2.55
[12], 8 µg/mL | -2.7
[12], 16 µg/mL | -2.64
[12], 32 µg/mL | -2.94
[12], 64 µg/mL | -1.14

M. abscessus ATCC 19977 and its deletion, point and complemented mutants after 5 days of drug at 37 °C plus 24 h of resazurin. Growth in % of untreated wells at the dose given (lower = more inhibition); checkerboards give % inhibition (higher = more inhibition); IC50 from the fitted curve (lower = more potent). No active / inactive call. IC50 values come from the same 384-well curves. Growth is not capped and can exceed 100%. The direction of the checkerboard scale is read from the raw signals. Capreomycin is a mixture.
